Consider 195 variants from a collection of fitness landscapes (doi:10.1126/science.1257360).

To fix the notation:
B1: PhoQ; a variant is named by its letters at X, in order, P23837 (parent)
chain: MKKLLRLFFPLSLRVRFLLATAAVVLVLSLAYGMVALIGYSVSFDKTTFRLLRGESNLFYTLAKWENNKLHVELPENIDKQSPTMTLIYDENGQLLWAQRDVPWLMKMIQPDWLKSNGFHEIEADVNDTSLLLSGDHSIQQQLQEVREDDDDAEMTHSVAVNVYPATSRMPKLTIVVVDTIPVELKSSYMVWSWFIYVLSANLLLVIPLLWVAAWWSLRPIEALAKEVRELEEHNRELLNPATTRELTSLVRNLNRLLKSERERYDKYRTTLTDLTHSLKTPLXXLQXXLRSLRSEKMSVSDAEPVMLEQISRISQQIGYYLHRASMRGGTLLSRELHPVAPLLDNLTSALNKVYQRKGVNISLDISPEISFVGEQNDFVEVMGNVLDNACKYCLEFVEISARQTDEHLYIVVEDDGPGIPLSKREVIFDRGQRVDTLRPGQGVGLAVAREITEQYEGKIVAGESMLGGARMEVIFGRQHSAPKDE

This is one part of the list. Some results are limits rather than exact numbers.

In the assay the parent is B1. As to the kind of experiment: enrichment ratio after two sorts for PhoP signalling (ratio (wild type AVST 3.29)); higher = more functional. The conditions noted are these: with PhoP (E. coli).
As for PGAH, the enrichment ratio is not above 0.25. Next, NSRL: not above 0.25; FKDC: not above 0.25; KYEP: not above 0.25. Next, HHWW: not above 0.25; INRS: not above 0.25; VSCC: not above 0.25. GSES: the enrichment ratio is not above 0.25. Consider QAGQ, for which the enrichment ratio came out at 24.5. Turning to ARMC, the enrichment ratio was not above 0.25. Next, VPPN: not above 0.25.

VHPC: the enrichment ratio is not above 0.25.

As for EARG, the enrichment ratio was not above 0.25. Next, AGSH: 9.44; ENAW: not above 0.25; WEHL: not above 0.25. WWLE: the enrichment ratio was not above 0.25. KRIN: the enrichment ratio was not above 0.25. For IFDP, the enrichment ratio is not above 0.25.

As for PYSQ, the enrichment ratio was not above 0.25.

Turning to QGMF, the enrichment ratio is not above 0.25.

For the variant SGMA, the enrichment ratio is 8.36. Next, MYDL: not above 0.25; WRQC: not above 0.25; DSPA: not above 0.25. With NYWS, the enrichment ratio was not above 0.25.

On to LQHT, for which the enrichment ratio was not above 0.25. With FNNA, the enrichment ratio was not above 0.25.

On to KDMQ, for which the enrichment ratio was not above 0.25. Next, LHSH: not above 0.25; QEQR: not above 0.25.

As to HSLQ, the enrichment ratio worked out at 7.69.

Take SRYH: the enrichment ratio is not above 0.25. Next, PTAQ: not above 0.25.

For NDAK, the enrichment ratio is not above 0.25. Next, IELP: not above 0.25; PMQG: not above 0.25; TIAK: 8.23. For the variant NQRF, the enrichment ratio is not above 0.25. Next, WRRM: not above 0.25. Next, EVFP: not above 0.25. Next, RLQQ: not above 0.25; ELCL: not above 0.25. As to LQMS, the enrichment ratio was not above 0.25. Next, VQFC: not above 0.25; QVHY: not above 0.25. As to PTPT, the enrichment ratio was not above 0.25. As to YMLW, the enrichment ratio is not above 0.25. In the case of QILR, the enrichment ratio was not above 0.25.

Consider FMHH, for which the enrichment ratio is not above 0.25.

Turning to TNAC, the enrichment ratio worked out at 3.13.

With PGGW, the enrichment ratio was not above 0.25. For FHTK, the enrichment ratio is not above 0.25. Next, GTWI: not above 0.25; KQQN: not above 0.25.

With VLTW, the enrichment ratio was found to be 2.09. Turning to MTCH, the enrichment ratio is not above 0.25. As for IGKQ, the enrichment ratio was not above 0.25.

For the variant DPIP, the enrichment ratio is not above 0.25. Next, FDTH: not above 0.25. Next, HMCY: not above 0.25. Regarding VMCW, the enrichment ratio is not above 0.25. As for QMST, the enrichment ratio amounted to 2.17. In the case of QSDH, the enrichment ratio came out at 18.9. With GATR, the enrichment ratio is not above 0.25. Next, KSMV: not above 0.25; TDCM: 6.15; ESSE: not above 0.25. Next, PKFI: not above 0.25; TCIV: not above 0.25. Next, FPTF: not above 0.25; DPFL: not above 0.25. For TSPT, the enrichment ratio is not above 0.25. Next, HNAT: not above 0.25; ETIV: not above 0.25; FGED: not above 0.25. Consider HDYC, for which the enrichment ratio was not above 0.25. Next, IMNA: not above 0.25. Turning to LSYC, the enrichment ratio is not above 0.25. Next, VLNI: not above 0.25; KCCL: not above 0.25.

Turning to YSGM, the enrichment ratio was not above 0.25. Next, IVTA: not above 0.25; DPFN: not above 0.25. With HEWF, the enrichment ratio is not above 0.25.

For the variant KMYA, the enrichment ratio was not above 0.25. Next, YFVF: not above 0.25; FKAI: not above 0.25. Turning to MVIH, the enrichment ratio is not above 0.25. Turning to AWAG, the enrichment ratio is not above 0.25. Next, TNSY: 7.94; IVDS: not above 0.25; LMTR: not above 0.25.

For the variant WFWM, the enrichment ratio is not above 0.25. On to YFYI, for which the enrichment ratio is not above 0.25.

PEPD: the enrichment ratio was not above 0.25. Next, PIYS: 0.681; ASCA: 13.5; RDST: 0.356.

With KFGV, the enrichment ratio is not above 0.25.

Consider YGTF, for which the enrichment ratio was not above 0.25. As to YPYG, the enrichment ratio is not above 0.25. For TPVI, the enrichment ratio was not above 0.25. Consider QACK, for which the enrichment ratio was not above 0.25. Next, ISLH: not above 0.25. With ITDI, the enrichment ratio is not above 0.25.

As to ELPA, the enrichment ratio was not above 0.25. Next, QGIF: not above 0.25. Take YMMS: the enrichment ratio was not above 0.25. Next, QPLQ: not above 0.25.

PKFK: the enrichment ratio was not above 0.25. On to LLNH, for which the enrichment ratio was not above 0.25.

Consider MEVT, for which the enrichment ratio stood at 27.6. Next, MFNE: not above 0.25; EGRM: not above 0.25. For the variant VNKY, the enrichment ratio is not above 0.25. Next, WFKQ: not above 0.25; MHNG: not above 0.25.

Take GTCV: the enrichment ratio was not above 0.25. HCGI: the enrichment ratio is not above 0.25. As to DIWV, the enrichment ratio is not above 0.25. Next, VSCI: 7.51.

Turning to REGF, the enrichment ratio is not above 0.25.

With WYMG, the enrichment ratio is not above 0.25.

On to GPDP, for which the enrichment ratio was not above 0.25. Next, RLHV: not above 0.25; HKRN: not above 0.25; ALMI: 17.6. For the variant FDVL, the enrichment ratio is not above 0.25. KSHS: the enrichment ratio is not above 0.25.

As for HFLH, the enrichment ratio was not above 0.25. Next, MGRS: not above 0.25; HRIH: not above 0.25; MYGN: not above 0.25. As to YRRW, the enrichment ratio is not above 0.25.

Turning to FLHN, the enrichment ratio is not above 0.25. Next, PAND: not above 0.25; HYHW: not above 0.25. Next, EGES: not above 0.25. Turning to QPIN, the enrichment ratio is not above 0.25.

TRKD: the enrichment ratio is not above 0.25. Next, GPVH: not above 0.25. Next, FACT: not above 0.25; QCFK: not above 0.25.

With NYMP, the enrichment ratio was not above 0.25.

As to QPCH, the enrichment ratio was not above 0.25. Next, VKGF: not above 0.25; PTHA: not above 0.25. On to HGKC, for which the enrichment ratio was not above 0.25. For QMCF, the enrichment ratio is not above 0.25. With AAFP, the enrichment ratio was not above 0.25. Consider NCNT, for which the enrichment ratio was not above 0.25. Next, VCHA: not above 0.25.

With NLSR, the enrichment ratio was not above 0.25. On to TLVK, for which the enrichment ratio is not above 0.25. Next, DMAG: not above 0.25.

As to FWHI, the enrichment ratio was not above 0.25. On to DYMC, for which the enrichment ratio was not above 0.25. For LWPV, the enrichment ratio was not above 0.25. Next, KRHD: not above 0.25; RFPW: not above 0.25; PWSM: not above 0.25. Next, SERY: not above 0.25; HYMN: not above 0.25. Next, FSPG: not above 0.25; VSST: not above 0.25. As for PNAL, the enrichment ratio is not above 0.25.

With NWQE, the enrichment ratio is not above 0.25. Next, FEHC: not above 0.25; NHFC: not above 0.25; ILYS: not above 0.25. Next, GMSL: 4.68.

Take REVM: the enrichment ratio is not above 0.25. PSPV: the enrichment ratio is not above 0.25.

Regarding NWNA, the enrichment ratio is not above 0.25. Next, FMNQ: not above 0.25; NKPL: not above 0.25.

Regarding NRDN, the enrichment ratio is not above 0.25. Next, ITWK: not above 0.25; LQMV: not above 0.25. Next, TNNF: 6.98; SLNI: not above 0.25. Turning to AIPA, the enrichment ratio was not above 0.25. For QRLW, the enrichment ratio is not above 0.25. Next, AFIR: not above 0.25.

For the variant LDRW, the enrichment ratio was not above 0.25. For the variant EPWY, the enrichment ratio is not above 0.25. Next, EPGK: not above 0.25.

As for FLYG, the enrichment ratio was not above 0.25.

Take VATM: the enrichment ratio came to 2.07. Next, EGWS: not above 0.25; TVEH: 9.73; SAAM: 7.53. Regarding DYWY, the enrichment ratio was not above 0.25. Next, IYHK: not above 0.25.
